# In PubChem BioAssay AID1963576 (National Center for Advancing Translational Sciences (NCATS), 2024):
# About 60 (0.1%) of roughly 46,000 compounds were called active. Inconclusive results (about 3%) are left out. Calls follow the shape of the dose curve; as a rule, active = well fitted inhibition curve with a large enough effect; inconclusive = small, poorly fitted or top-dose-only effect; inactive = no such curve, though single readings can be large or run the other way. Some of the results follow.
# Assay: Primary qHTS assay for Inhibitors of ovarian cancer metastasis using an organotypic tumor microenvironment (TME) model. Also: nearly all actives have a fitted effect of over 65% in size.
# Settings: SKOV3ip1-GFP adhesion/invasion on 3D omental model, fluorescence; series mostly up to 45.8 µM; activity change, negative = inhibition: at the top concentration
# Source text: PI: Ernst Lengyel MD., Ph.D. Department of Obstetrics and Gynecology, Section of Gynecologic Oncology University of Chicago Medicine, Chicago, Illinois. The tumor microenvironment (TME) is a key determinant of metastatic efficiency. We performed a quantitative high-throughput screen (qHTS) of diverse medicinal chemistry tractable scaffolds (44,420 compounds) and pharmacologically active small molecules (386 compounds) using a layered organotypic, robust assay representing the ovarian cancer metastatic TME. This 3D model contains primary human mesothelial cells, fibroblasts, and extracellular matrix, to which fluorescently labeled ovarian cancer cells are added. Initially, 100 compounds inhibiting ovarian cancer adhesion/invasion to the 3D model in a dose-dependent manner were identified. Of those, eight compounds were confirmed active in five high-grade serous ovarian cancer cell lines and were further validated in secondary in vitro and in vivo biological assays. […] Specifically, NCGC00117362 and PP-121 inhibited ovarian cancer adhesion, invasion, and proliferation, whereas milciclib inhibited ovarian cancer invasion and proliferation. […] To evaluate the clinical potential of NCGC00117362, structure - activity relationship studies were performed. […] The three compounds identified have promise as therapeutics for prevention and treatment of ovarian cancer metastasis.
# PROTOCOL TABLE (as described by Inglese J, Shamu CE and Guy RK. 2007) SEQUENCE No. (e.g., 1, 2, 3, etc.); […] (e.g., Cells, Incubation, Reagent, etc.); VALUE; DESCRIPTION. 1; Cells; 4 uL; primary human omental fibroblast, black, clear bottom, low base, 1536-well Aurora assay plate. 2; Incubation; 48 hr; 37C. 3; Cells; 3 uL; 1,200 SKOV3ip1-GFP cells. 4; Compounds; 23nL; acoustic dispenser. 5; Incubation; 2 hr; room temperature. 6; Incubation; 16 hr; 37C. 7; Wash; 5 uL; 1x PBS. 8; Fixing; 5 uL; 4% paraformaldehyde (PFA). 9; Incubation; 15 min; room temperature 10; Wash, 5 uL; 1x PBS. 11; Detection; Fluorescence, excitation filter 488 nm, emission filter 509 nm. NOTES (numbers refer to Sequence numbers above) 1. For the 1,536-well format, 40 primary human omental fibroblasts and 400 mesothelial cells were seeded with 0.02 µg fibronectin and 0.02 µg collagen type I in 4 µL of growth media (2.3 mm2; Supplementary Fig. S1A). 2. Assay plates were incubated for 48 hours at 37 C. 3. After incubation, 1,200 SKOV3ip1-GFP were seeded in 3 µL of serum-free media (growth media minus FBS) on top of primary human omental cells. 4. Compounds or controls were added to each well immediately after the addition of the cancer cells. Compounds were screened in four doses (0.36-46 µmol/L), and the plates contained the positive control (Tomatine) in eight doses (0.035-75 µmol/L) and DMSO (equal volume controls) 5 - 6. The plates were incubated at room temperature for 2 hours and then at 37 degrees C for 16 hours. 7 - 10. Following incubation, the media were aspirated and each well washed with PBS (5 µL) and then fixed with 4% paraformaldehyde (PFA; 5 µL). After 15 minutes, the PFA solution was aspirated, PBS (5 µL) was added. 11. The number of GFP-labeled cells analyzed using a fluorescent cytometer TTP LabTech Acumen eX3 using 488 nm excitation filter and 509 nm emission filter. Data was normalized to the DMSO treated for negative and Tomatine treated wells for positive control. REFERENCES: Inglese J, Shamu CE and Guy RK, Reporting data from high throughput screening of small molecule libraries, Nature Chemical Biology, 2007, 3(8): 438-441. doi.org/10.1038/nchembio0807-438. Yasgar A, Shinn P, Jadhav A, Auld DS, Michael S, Zheng W, Austin CP, Inglese J and Simeonov A, Compound Management for Quantitative High-Throughput Screening. J. Assoc. Lab. Auto., 2008, 13: 79-89. doi: 10.1016/j.jala.2007.12.004.
SMILES,"activity change, negative = inhibition",outcome
CN(C)NC(=O)CCC(=O)O,inactive: -0.334%,–
COc1ccccc1-c1nn2c(=O)cc(CN3CCN(C(=O)COc4ccccc4Cl)CC3)nc2s1,inactive: 1.02%,–
CCc1ccc(-n2nc(C)c3c2NC(=O)CSC3c2ccc(C(=O)OC)cc2)cc1 (stereo not given),inactive: 4.05%,–
CCN(CC)C(=O)c1ccc(NC(=O)COc2ccc(-c3nn(C)c(=O)c4ccccc34)cc2)cc1,–,inactive
COc1cc2[nH]c(=O)n(-c3ccc(C)cc3)c(=O)c2cc1OC,–,inactive
Cc1ccc(-c2nn3c(=O)cc(CN4CCN(C(=O)COc5ccc(C)c(C)c5)CC4)nc3s2)cc1,inactive: 4.46%,–
COc1ccc(Br)cc1C1SCC(=O)Nc2c1c(C)nn2-c1ccccc1C (stereo not given),inactive: 2.54%,–
CCCC1=Nc2cc(C(=O)NCCCN(CC)CC)ccc2Sc2ccccc21,inactive: 13.7%,–
COC(=O)[C@@H](N)CCCN=C(N)N[N+](=O)[O-],inactive: 9.36%,–
CCCC12CN3CC(C)(CN(C1)C3c1c(C)[nH]c(=O)[nH]c1=O)C2=O (stereo not given),inactive: -16.7%,–
COc1cccc(NC(=O)c2cccn(Cc3ccccc3C)c2=O)c1,inactive: -17%,–
COc1ccccc1C1SCC(=O)Nc2c1c(C)nn2-c1cccc(C)c1 (stereo not given),inactive: 2.23%,–
Cc1ccc(Cn2cccc(C(=O)Nc3ccc4c(c3)OCCO4)c2=O)cc1,inactive: -6.56%,–
Cc1ccc(-c2nc(CN3C(=O)CN=C(c4ccccc4)c4ccccc43)c(C)o2)cc1,inactive: -1.48%,–
CCN(CC)C(=O)c1ccc(NC(=O)c2ccc(-c3nn(C)c(=O)c4ccccc34)cc2)cc1,inactive: 20.5%,–
Cc1ccccc1-n1nc(C)c2c1NC(=O)CSC2c1ccc(Cl)cc1 (stereo not given),inactive: -0.637%,–
CC(C)N(CCNC(=O)CN1CCCC1=O)C(C)C,inactive: -8.02%,–
NC1=NC(=O)N2CC12 (stereo not given),inactive: 5%,–
Cc1ccccc1-n1c(/C=C/c2c(C)[nH]c3ccccc23)nc2ccccc2c1=O,–,inactive
COc1ccc(OCC(=O)N2CCN(CCc3ccncc3)CC2)cc1,inactive: -4.41%,–
C[C@]12CC[C@H]3[C@@H](CC[C@@]45O[C@H]4C(O)=C(C#N)C[C@]35C)[C@H]1CC[C@H]2O,inactive: 2.59%,–
Fc1ccc(C(OCCN2CCN(CCCc3ccccc3)CC2)c2ccc(F)cc2)cc1,inactive: -24.9%,–
CN(C)c1ccc(NC(=O)c2sc3nc4c(cc3c2N)N2CCC4CC2)cc1,inactive: -2.77%,–
C=C(C)[C@H]1Cc2c(ccc3c2O[C@@H]2COc4cc(OC)c(OC)cc4[C@@H]2C3=O)O1,inactive: -16.3%,–
COC(=O)C1=CCCN(C)C1,inactive: 20.1%,–

SMILES,"activity change, negative = inhibition",outcome
CC(N[C@H]1C[C@H]1c1ccccc1)c1ccc2c(c1)OCCO2 (stereo not given in full),inactive: -8.14%,–
Cc1c(C(c2ccc(Br)cc2)c2c(O)c3ccccc3oc2=O)c(=O)n(-c2ccccc2)n1C (stereo not given),inactive: -3.08%,–
Cc1ccc(Cn2cccc(C(=O)Nc3cc(C)on3)c2=O)cc1,inactive: -1.71%,–
Cc1cccc(-c2nn3c(=O)cc(CN4CCN(C(=O)COc5ccc(Cl)cc5)CC4)nc3s2)c1,–,inactive
CCc1nc(SC)ncc1C(=O)Nc1ccc(Cl)cc1C(=O)c1ccccc1,inactive: -2.09%,–
CC(=O)Nc1ccc(OC[C@](C)(O)C(=O)Nc2ccc([N+](=O)[O-])c(C(F)(F)F)c2)cc1,inactive: -13.3%,–
COc1cccc(C2SCC(=O)Nc3c2c(C)nn3-c2ccc(C)c(Cl)c2)c1OC (stereo not given),inactive: 2.71%,–
Cc1ccccc1OCC(=O)N1CCN(CCc2ccccn2)CC1,inactive: 12.7%,–
C[C@](O)(COc1ccc(C#N)cc1)C(=O)Nc1ccc(C#N)c(C(F)(F)F)c1,inactive: -7.97%,–
O=C(Nc1ccc2c(c1)OCO2)c1cccn(Cc2cccc([N+](=O)[O-])c2)c1=O,inactive: -9.5%,–
CC=C(C)C(=O)N[C@@H](c1ccccc1)[C@@H](O)C(=O)O[C@H]1C[C@@]2(O)[C@@H](OC(=O)c3ccccc3)[C@@H]3[C@]4(OC(C)=O)CO[C@@H]4C[C@H](O)[C@@]3(C)C(=O)[C@H](OC(C)=O)C(=C1C)C2(C)C,inactive: -6.19%,–
COc1ccc(NC(=O)CCc2nc(C3=CCN(Cc4cccc(Cl)c4)CC3)no2)c(OC)c1,inactive: -4.57%,–
O=S1(=O)N(Cc2ccccc2Cl)CCCN1Cc1ccccc1Cl,inactive: 7.21%,–
CCCCC12CN3CC(C)(CN(C1)C3c1ccccn1)C2=O (stereo not given),inactive: 98.4%,–
Cc1cccc(CN2C(=O)CN=C(c3ccccc3)c3ccccc32)c1,–,inactive
COc1ccc(-n2c(/C=C/c3cccc(F)c3)nc3ccccc3c2=O)cc1Cl,inactive: -5.08%,–
Cc1ccc(NC(=O)Cn2cc(C(=O)c3ccccc3)c3ccccc32)c(C)c1,–,inactive
CCOc1ccc(CN(CCc2ccc3c(c2)OCO3)Cc2ccc(C)cc2)cc1,–,inactive
CC(C)Cc1nc2cccnc2n1C1CCNCC1,–,inactive
Cc1cccc(-n2nc(C)c3c2NC(=O)CSC3c2ccccc2Cl)c1 (stereo not given),inactive: 0.526%,–
Cc1nnc(NC(=O)c2cccn(Cc3cccc(F)c3)c2=O)s1,inactive: -5.72%,–
O=c1[nH]c2ccccc2n1C1CCN(Cc2ccc(-c3[nH]c4cc5ncnc5cc4nc3-c3ccccc3)cc2)CC1,inactive: 26.7%,–
COc1cccc(-c2nn3c(=O)cc(CN4CCN(C(=O)COc5ccccc5C)CC4)nc3s2)c1,–,inactive
Cc1ccc(OCC(=O)Nc2ccc(Cl)cc2C(=O)c2ccccc2)cc1C,inactive: 0.525%,–
CC(C)c1ccc(OCC(=O)N2CCN(CCc3ccccn3)CC2)cc1,inactive: 0.583%,–
